Measurements published in the supplement of paper PMC8728848.
The list shows a part of the results.

How the values were obtained:
Test in all cases: glycan array binding signal (z-score within array); higher = stronger binding
Conditions in all cases: glycan notation: IUPAC condensed, linker removed
[1] = target: Fuc(a1-2)[GalNAc(b1-3)]Gal
In short: (§1)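 Columns mapping to the same glycan were averaged after glycan names were converted to IUPAC-condensed notation. The data come from 3228 arrays in the Consortium for Functional Glycomics database, limited to those with an available protein sequence. Binding is reported as a within-array Z-score averaged across arrays of one protein sequence and across linkers.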

Fuc(a1-3)GlcNAc = target: Fuc(a1-3)GlcNAc
In short: as §1

[2] = target: Fuc(a1-3)[Gal(b1-4)]Glc6S
In short: as §1

[3] = target: Fuc(a1-3)[Gal(b1-4)]GlcNAc
In short: as §1

[4] = target: Fuc(a1-3)[Gal(b1-4)]GlcNAc(b1-2)Man
In short: as §1

[5] = target: Fuc(a1-3)[Gal(b1-4)]GlcNAc(b1-2)Man(a1-3)[Fuc(a1-3)[Gal(b1-4)]GlcNAc(b1-2)Man(a1-6)]Man(b1-4)GlcNAc(b1-4)GlcNAc
In short: as §1

[6] = target: Fuc(a1-3)[Gal(b1-4)]GlcNAc(b1-2)Man(a1-3)[Fuc(a1-3)[Gal(b1-4)]GlcNAc(b1-2)Man(a1-6)]Man(b1-4)GlcNAc(b1-4)[Fuc(a1-6)]GlcNAc
In short: as §1

[7] = target: Fuc(a1-3)[Gal(b1-4)]GlcNAc(b1-3)Gal(b1-3)[Fuc(a1-4)]GlcNAc
In short: as §1

[8] = target: Fuc(a1-3)[Gal(b1-4)]GlcNAc(b1-3)Gal(b1-4)[Fuc(a1-3)]GlcNAc
In short: as §1

[9] = target: Fuc(a1-3)[Gal(b1-4)]GlcNAc(b1-3)Gal(b1-4)[Fuc(a1-3)]GlcNAc(b1-3)Gal(b1-4)[Fuc(a1-3)]GlcNAc
In short: as §1

[10] = target: Fuc(a1-3)[Gal(b1-4)]GlcNAc(b1-3)GalNAc
In short: as §1

[11] = target: Fuc(a1-3)[Gal(b1-4)]GlcNAc(b1-6)GalNAc
In short: as §1

[12] = target: Fuc(a1-3)[Gal(b1-4)]GlcNAc(b1-6)[Gal(b1-3)GlcNAc(b1-3)]Gal(b1-4)Glc
In short: as §1

[13] = target: Fuc(a1-3)[Gal(b1-4)]GlcNAc6S
In short: as §1

[14] = target: Fuc(a1-3)[Gal3S(b1-4)]Glc
In short: as §1

[15] = target: Fuc(a1-3)[Gal3S(b1-4)]GlcNAc
In short: as §1

[16] = target: Fuc(a1-3)[Gal3S(b1-4)]GlcNAc6S
In short: as §1

[17] = target: Fuc(a1-3)[GalNAc(b1-4)]GlcNAc
In short: as §1

[18] = target: Fuc(a1-3)[GalNAc(b1-4)]GlcNAc6S
In short: as §1

Fuc(a1-4)GlcNAc = target: Fuc(a1-4)GlcNAc
In short: as §1

Fuc(b1-3)GlcNAc = target: Fuc(b1-3)GlcNAc
In short: as §1

Gal(a1-2)Gal = target: Gal(a1-2)Gal
In short: as §1

Gal(a1-3)Gal = target: Gal(a1-3)Gal
In short: as §1

Gal(a1-3)Gal(b1-3)GlcNAc = target: Gal(a1-3)Gal(b1-3)GlcNAc
In short: as §1

[19] = target: Gal(a1-3)Gal(b1-3)GlcNAc(b1-2)Man
In short: as §1

[20] = target: Gal(a1-3)Gal(b1-3)GlcNAc(b1-2)Man(a1-3)[Gal(a1-3)Gal(b1-3)GlcNAc(b1-2)Man(a1-6)]Man(b1-4)GlcNAc(b1-4)GlcNAc
In short: as §1

[21] = target: Gal(a1-3)Gal(b1-3)GlcNAc(b1-3)GalNAc
In short: as §1

[22] = target: Gal(a1-3)Gal(b1-3)GlcNAc(b1-6)GalNAc
In short: as §1

[23] = target: Gal(a1-3)Gal(b1-3)[Fuc(a1-4)]GlcNAc(b1-2)Man(a1-3)[Gal(a1-3)Gal(b1-3)[Fuc(a1-4)]GlcNAc(b1-2)Man(a1-6)]Man(b1-4)GlcNAc(b1-4)GlcNAc
In short: as §1

Gal(a1-3)Gal(b1-4)Glc = target: Gal(a1-3)Gal(b1-4)Glc
In short: as §1

Gal(a1-3)Gal(b1-4)GlcNAc = target: Gal(a1-3)Gal(b1-4)GlcNAc
In short: as §1

[24] = target: Gal(a1-3)Gal(b1-4)GlcNAc(b1-2)Man
In short: as §1

[25] = target: Gal(a1-3)Gal(b1-4)GlcNAc(b1-2)Man(a1-3)[Gal(a1-3)Gal(b1-4)GlcNAc(b1-2)Man(a1-6)]Man(b1-4)GlcNAc(b1-4)GlcNAc
In short: as §1

[26] = target: Gal(a1-3)Gal(b1-4)GlcNAc(b1-3)GalNAc
In short: as §1

[27] = target: Gal(a1-3)Gal(b1-4)GlcNAc(b1-6)GalNAc
In short: as §1

[28] = target: Gal(a1-3)Gal(b1-4)[Fuc(a1-3)]GlcNAc
In short: as §1

[29] = target: Gal(a1-3)Gal(b1-4)[Fuc(a1-3)]GlcNAc(b1-2)Man(a1-3)[Gal(a1-3)Gal(b1-4)[Fuc(a1-3)]GlcNAc(b1-2)Man(a1-6)]Man(b1-4)GlcNAc(b1-4)GlcNAc
In short: as §1

Gal(a1-3)GalNAc = target: Gal(a1-3)GalNAc
In short: as §1

[30] = target: Gal(a1-3)[Gal(a1-4)]Gal(b1-4)GlcNAc
In short: as §1

[31] = target: Gal(a1-4)Gal(b1-3)GlcNAc(b1-2)Man(a1-3)[Gal(a1-4)Gal(b1-3)GlcNAc(b1-2)Man(a1-6)]Man(b1-4)GlcNAc(b1-4)GlcNAc
In short: as §1

Gal(a1-4)Gal(b1-4)Glc = target: Gal(a1-4)Gal(b1-4)Glc
In short: as §1

Gal(a1-4)Gal(b1-4)GlcNAc = target: Gal(a1-4)Gal(b1-4)GlcNAc
In short: as §1

[32] = target: Gal(a1-4)Gal(b1-4)GlcNAc(b1-2)Man(a1-3)[Gal(a1-4)Gal(b1-4)GlcNAc(b1-2)Man(a1-6)]Man(b1-4)GlcNAc(b1-4)GlcNAc
In short: as §1

[33] = target: Gal(a1-4)Gal(b1-4)GlcNAc(b1-3)Gal(b1-4)Glc
In short: as §1

Gal(a1-4)GlcNAc = target: Gal(a1-4)GlcNAc
In short: as §1

B1: LSL-150 (Laetiporus sulphureus), Q7Z8V1 (protein)
chain: MTDIYIPPEGLYFRLLGFASRQVIFARNSPSPDVGLSPVNDQATDQYFSLIYGTGEHAGLYAIKSKATGKVLFSRRPAEPYVGQIDGDGRYPDNWFKIEPGKTYLSKYFRLVQPSTGTALVSRTHLQPYFWNHPQTEVFDDQYFTFLFEDHHHHHH
B1 was tested, and the “glycan array binding signal (z-score)” value [1] was -0.214, the “glycan array binding signal (z-score)” value (Fuc(a1-3)GlcNAc) was -0.205 and the “glycan array binding signal (z-score)” value [2] was -0.203. The “glycan array binding signal (z-score)” value [3] was -0.203, the “glycan array binding signal (z-score)” value [4] was -0.205 and the “glycan array binding signal (z-score)” value [5] was -0.207. The “glycan array binding signal (z-score)” value [6] was -0.197, the “glycan array binding signal (z-score)” value [7] was -0.211 and the “glycan array binding signal (z-score)” value [8] was -0.199. The “glycan array binding signal (z-score)” value [9] was -0.21, the “glycan array binding signal (z-score)” value [10] was -0.208 and the “glycan array binding signal (z-score)” value [11] was -0.209. The “glycan array binding signal (z-score)” value [12] was -0.204, the “glycan array binding signal (z-score)” value [13] was -0.205 and the “glycan array binding signal (z-score)” value [14] was -0.209. For the same binder, the “glycan array binding signal (z-score)” value [15] was -0.187, the “glycan array binding signal (z-score)” value [16] was -0.201 and the “glycan array binding signal (z-score)” value [17] was -0.173. For the same binder, the “glycan array binding signal (z-score)” value [18] was -0.205, the “glycan array binding signal (z-score)” value (Fuc(a1-4)GlcNAc) was -0.206 and the “glycan array binding signal (z-score)” value (Fuc(b1-3)GlcNAc) was -0.203. For the same binder, the “glycan array binding signal (z-score)” value (Gal(a1-2)Gal) was -0.196, the “glycan array binding signal (z-score)” value (Gal(a1-3)Gal) was -0.209 and the “glycan array binding signal (z-score)” value (Gal(a1-3)Gal(b1-3)GlcNAc) was -0.198. For the same binder, the “glycan array binding signal (z-score)” value [19] was -0.194, the “glycan array binding signal (z-score)” value [20] was -0.204 and the “glycan array binding signal (z-score)” value [21] was -0.21. The “glycan array binding signal (z-score)” value [22] was -0.203, the “glycan array binding signal (z-score)” value [23] was -0.203 and the “glycan array binding signal (z-score)” value (Gal(a1-3)Gal(b1-4)Glc) was -0.203. The “glycan array binding signal (z-score)” value (Gal(a1-3)Gal(b1-4)GlcNAc) was -0.212, the “glycan array binding signal (z-score)” value [24] was -0.208 and the “glycan array binding signal (z-score)” value [25] was -0.199. For the same binder, the “glycan array binding signal (z-score)” value [26] was -0.21, the “glycan array binding signal (z-score)” value [27] was -0.2 and the “glycan array binding signal (z-score)” value [28] was -0.213. For the same binder, the “glycan array binding signal (z-score)” value [29] was -0.199, the “glycan array binding signal (z-score)” value (Gal(a1-3)GalNAc) was -0.205 and the “glycan array binding signal (z-score)” value [30] was -0.186. The “glycan array binding signal (z-score)” value [31] was -0.204, the “glycan array binding signal (z-score)” value (Gal(a1-4)Gal(b1-4)Glc) was -0.198 and the “glycan array binding signal (z-score)” value (Gal(a1-4)Gal(b1-4)GlcNAc) was -0.202. For the same binder, the “glycan array binding signal (z-score)” value [32] was -0.202, the “glycan array binding signal (z-score)” value [33] was -0.2 and the “glycan array binding signal (z-score)” value (Gal(a1-4)GlcNAc) was -0.214.
